{"source": "PubChem BioAssay AID624173", "about": "(National Center for Advancing Translational Sciences (NCATS), 2012)", "note": "Out of some 410,000 compounds screened, about 490 (0.12%) were called active. This list was built around the results that the source calls inconclusive (neither active nor inactive); the mix of calls is not that of the screen. The call rests on the fitted dose curve; in most records, active means well fitted inhibition curve with a large enough effect; inconclusive means small, poorly fitted or top-dose-only effect; inactive means flat fitted curve, though single readings scatter. A potency beside an inconclusive call is a rough fit, not a confirmed value.", "data": [{"target": "pyruvate kinase (Trypanosoma brucei) (UniProt Q57TT1)", "experiment": "qHTS of Trypanosoma Brucei Inhibitors; further: nearly all actives have a fitted effect of over 50% in size; further: potency means the concentration at half of the fitted maximal effect; tags describe the fitted curve by direction and shape", "conditions": "TbPYK enzyme, Kinase-Glo Plus ATP luminescence, 45 min; series mostly up to 76.8 µM", "summary_of_the_method": "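Glycolytic pyruvate kinase of T. brucei was incubated with substrate, test compound and 130 uM ADP for 45 minutes at room temperature. Luminescent Kinase-Glo Plus signal was measured after 10 minutes.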", "values": [{"molecule": "O=[N+]([O-])c1ccc2c(c1)-c1ccccc1C2O", "note": "(stereo unspecified)", "Potency": "active: 15.8 µM"}, {"molecule": "CC(C)c1ccc(NC(=O)Cc2c(C(=O)O)n(C)c3ccccc23)cc1", "Potency": "inactive"}, {"molecule": "CCOC(=O)C1C(=O)N(C(=O)c2cncc(Br)c2)CC1c1ccccc1", "note": "(stereo unspecified)", "Potency": "inconclusive: 28.2 µM [inhibitor, single point]"}, {"molecule": "Cc1cnc(NC(=O)/C=C/c2ccc(Br)o2)s1", "Potency": "inactive"}, {"molecule": "S=c1[nH]nc(Cn2nnc3ccccc32)n1-c1ccc(Cl)cc1", "Potency": "inconclusive: 28.2 µM [inhibitor, partial curve, poor fit]"}, {"molecule": "Cc1ccc(NC2Sc3ccccc3NC2=O)cc1", "note": "(stereo unspecified)", "Potency": "active: 14.1 µM"}, {"molecule": "O=C(CSc1ccc2nnc(-c3ccc(F)cc3)n2n1)NCC1CCCO1", "note": "(stereo unspecified)", "Potency": "inconclusive: 50.1 µM [inhibitor, single point]"}, {"molecule": "Cn1c(NCc2ccc(Cl)cc2)nc2ccccc21", "Potency": "inactive"}, {"molecule": "O=C(NC(=S)NNC(=O)c1ccccc1[N+](=O)[O-])c1ccc(Br)cc1", "Potency": "inconclusive: 35.5 µM [inhibitor, partial curve]"}, {"molecule": "COC(Cc1n[nH]c(=S)n1-c1ccc(Cl)cc1)OC", "Potency": "inconclusive: 35.5 µM [inhibitor, partial curve, poor fit]"}, {"molecule": "O=C1OC2(c3ccccc31)c1cc(I)c(O)c(I)c1Oc1c2cc(I)c(O)c1I", "Potency": "inconclusive: 35.5 µM [inhibitor, single point]"}, {"molecule": "Cc1ccc(S(=O)c2ccc(NC(=O)C3CC3)cc2C#N)cc1", "note": "(stereo unspecified)", "Potency": "inactive"}, {"molecule": "Cc1cc(-c2n[nH]c(=S)n2/N=C/c2cccc([N+](=O)[O-])c2)n[nH]1", "Potency": "inconclusive: 5.62 µM [inhibitor, partial curve]"}, {"molecule": "CSC1=NCCN1C(=O)c1ccc(Br)o1", "Potency": "inactive"}, {"molecule": "O=C(Nc1ccnc(-c2cccnc2)n1)c1ccc(Cl)c(Cl)c1", "Potency": "inconclusive: 35.5 µM [inhibitor, single point]"}, {"molecule": "COc1ccccc1OC1=NS(=O)(=O)c2ccccc21", "Potency": "inactive"}, {"molecule": "S=C(c1ccc(N2CCCC2)cc1)N1CCCCC1", "Potency": "inconclusive: 44.7 µM [inhibitor, single point]"}, {"molecule": "Cc1ccc(-c2ccc(CCC(=O)O)o2)cc1", "Potency": "inconclusive: 39.8 µM [inhibitor, single point]"}, {"molecule": "O=C(CSc1nnc(-c2ccc(F)cc2)o1)Nc1ccc(S(=O)(=O)N2CCCCCC2)cc1", "Potency": "inactive"}, {"molecule": "CCOc1ccc(-n2c(=O)c3c4c(sc3n(CC(=O)Nc3cccc(C(F)(F)F)c3)c2=O)CCCCC4)cc1", "Potency": "inactive"}, {"molecule": "Cc1cc(C)c(NC(=S)NCC2CCN(C(C)c3ccccc3)C2)c(C)c1", "note": "(stereo unspecified)", "Potency": "inconclusive: 15.8 µM [inhibitor, partial curve, poor fit]"}]}]}
